Variants at the floor of the assay are shown more often than the library holds them.
B1: TPR 5TU (parent)
chain: GGAUCUUCUCGAUCUAACAAAAAAGACAAAUCUGCCACAAAGCUUGAGAGCAUCUUCGGAUGCAGAGGCGGCAGCCUUCGGUGGCGCGAUAGCGCCAACGUUCUCAACUAUGACACGCAAAACGCGUGCUCCGUUGAAUGGAGUUUAUCAUG

Variants of: B1
Assay: polymerase ribozyme fitness, log enrichment relative to wild type (log ratio); higher = more active; in vitro selection for triplet polymerase activity
How it was run: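 Fitness is a logarithmic measure of how a genotype enriched relative to the wild type, with replicate averages weighted by inverse variance. The logarithm uses base 2, and enrichment came from Illumina sequencing of input and output libraries. Those libraries were PCR-built, transcribed mutants of each subunit of a heterodimeric triplet polymerase ribozyme, passed through one triplicate in vitro selection round that included frozen incubation at −7 °C, gel excision of extended constructs and streptavidin-bead capture. Genotypes were kept only if they had ≥10 input reads and ≥1 read per output.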

Variant | polymerase ribozyme fitness (log ratio)
C8G C18A G46C A60U G70A G94U G140U A150G | ≤ -4.2
C8A G50A C76A C85G C108G G141C | ≤ -4.2
C8U C43U C93U C99U U104G G141A | ≤ -4.2
C8U A17G A29C G34A C57A G67C A73G U77G A91U A97G C125U | ≤ -4.2
C8G C36G A98G U101G G136A | ≤ -4.2
C8U A17U A142U C149U | ≤ -4.2
C8A U9C C14U A29U G59C G62U C95U C116A | ≤ -4.2
C8U C87A | ≤ -4.2
C8G A91U | ≤ -4.2
C8G C10A A30C A66C G88A G94U A106C C131U | ≤ -4.2
C8G A39U C63U G68A G80U G86C A106G C118U | ≤ -4.2
C8A C96G C99U A122U U151A | ≤ -4.2
C8U A24C C36U G48A C95G C105U U145A | ≤ -4.2
C8U C38A C75G C85G | ≤ -4.2
C8G C10A G62A G92U C108U | ≤ -4.2
C8A U13G A21G A28G G68U G81A C118G G143U | ≤ -4.2
C8U A47U C79A C85U C93G G100A C118U C131U | ≤ -4.2
C8U C43U C85A U101G C118A | ≤ -4.2
C8G A20C G67C G68C A113U | ≤ -4.2
C8A C85U C105G U135C | ≤ -4.2
C8A G50U G84A A97U U101G | ≤ -4.2
C8A C27A C76A C85G C118U | ≤ -4.2
C8A C87G C108G U111A A115U | ≤ -4.2
C8G G48U U53A G94U A98G C105G A113G G143C | ≤ -4.2

Variant | polymerase ribozyme fitness (log ratio)
C8G C36U A66C G86C A138C | ≤ -4.2
C8U C32G G84C A110G G152A | ≤ -4.2
C8U A19U A24U G62A U82A | ≤ -4.2
C8U A28U C36G G58C G68A U102G U109A G117U C132U U148A | ≤ -4.2
C8A C14U G42C G50A C75A G88U G141A | ≤ -4.2
C8G A22U U55A U82G A91G A107G U109G | ≤ -4.2
C8U A22C G25A A41U G59C C85G C87A A98U G100C C118A | ≤ -4.2
C8G A24U A40C C69A G84A C103U C123A | ≤ -4.2
C8U A24G G42A G67C G71U G81A | ≤ -4.2
C8A C76A U82G C93A | ≤ -4.2
C8G A17C U102G G141C | ≤ -4.2
C8A C72A G83A C87G A89U A115C U134A | ≤ -4.2
C8U A19C A40G C57U G92U G140A U146A | ≤ -4.2
C8G U15G U53A C57U A60G C95U U104C A110C | ≤ -4.2
C8U C51A G88U C93U | ≤ -4.2
C8U C43G U45A A91G A107G C131U | ≤ -4.2
C8G C43U U61G G84U A107C G117C U148G | ≤ -4.2
C8A C38U U56A C87U C116U G143U | ≤ -4.2
C8G C75G G84U U102C | ≤ -4.2
C8U A16C G46C C76A C87A G92U | ≤ -4.2
C8G A41U C76A A91U C95G | ≤ -4.2
C8U C18G G50C G58U A73G C76A C93A C116A A120C | ≤ -4.2
C8G A26C A64U A66C G88U A119G U148C | ≤ -4.2
C8G A41U U55G U56A G65A G70C U78A G81A C93A A122U | ≤ -4.2

Variant | polymerase ribozyme fitness (log ratio)
C8U A19C C35G A37C U61C C76G C93A | ≤ -4.2
C8U A22G C57A G67A G70C G80C C85U A137U | ≤ -4.2
C8U C14G C76G C96U | ≤ -4.2
C8G U53A C57G C96U C108U U135A | ≤ -4.2
C8G A47C C54G C93A G126A | ≤ -4.2
C8U A49G G59C C69U U82G G92U | ≤ -4.2
C8G A52C U55C G65A G83U C105U G143U | ≤ -4.2
C8U A40U U55G U56A | ≤ -4.2
C8G A17G A21U A98G | -3.93
C8A C38U C118G C129U | ≤ -4.2
C8A U56A U77C G86U C103G A115U C125A G143U | ≤ -4.2
C8U C32A C85U | ≤ -4.2
C8G G59C C96G A147U U148C | ≤ -4.2
C8A C35G C51U G59A A73G C76A C85G A138U U151C | ≤ -4.2
C8G A30C C75A G86U C118G | ≤ -4.2
C8G A20C U33G A52G U61A G84C C125A | ≤ -4.2
C8G A49C G50A C57U C63U C87A C99U C123G | ≤ -4.2
C8U A17C A23U G86A A89G A91C C99G | ≤ -4.2
C8G C35G C105G U144A | ≤ -4.2
C8U C96U | -2.69
C8G A73U C87G | ≤ -4.2
C8U C57U C75U G86A C99G U135G | ≤ -4.2
C8G G11C A17C C38A U55A G70A C75A C87A A91U G133A | ≤ -4.2
C8A U31G C36U C114U A142C | -4.19

Variant | polymerase ribozyme fitness (log ratio)
C8U A30U C32U A64G C76A A97G A107U C108U A110G C116A | -4.12
C8G C14G A30U C79U | ≤ -4.2
C8U A37G A60U C63A G128U A137G G141A G143A | ≤ -4.2
C8G A24G A52G U53A C57U G140U U148C | ≤ -4.2
C8G U15C A52G C57G G59U C87G | -3.95
C8G A12U G25A A28U A39C G58C G94U U144G | ≤ -4.2
C8G A28C C72A U82A C87G | ≤ -4.2
C8U C57A | -2.69
C8U C57U | -3.18
C8U C10G A29U C85U C116U | ≤ -4.2
C8G A29U C95G G128U | ≤ -4.2
C8G A16U A20U G70A G92U A120U G140A | ≤ -4.2
C8U C54A G86A U144C C149U | ≤ -4.2
C8G A24U C32U C54G U61A G92U C99A | ≤ -4.2
C8A U109G C116A | ≤ -4.2
C8U C32A | ≤ -4.2
C8G A24U A29G C54G C57U G94A A98G U135G | ≤ -4.2
C8A C32A G62A U82G G143A | ≤ -4.2
C8A U15G C18U G58C C96G | -3.95
C8U C87G G92A A107C | ≤ -4.2
C8A U13A A24C A28U A91U C96G C103U C118G | ≤ -4.2
C8U C57U A91U | ≤ -4.2
C8G A21U A22G A60G C93U | ≤ -4.2
C8U A30C C32U A52G C72U C93U A97G C108G U151A | ≤ -4.2

Variant | polymerase ribozyme fitness (log ratio)
C8G A19C C54U | ≤ -4.2
C8U C14G C18G G34A C93G G94U G126A | ≤ -4.2
C8U C75U G84A G141C | ≤ -4.2
C8U A17G A30U C95U G126A U148G | ≤ -4.2
C8A G48C U55A | ≤ -4.2
C8G A22U C36A G42A G67A G80A G84C C116G | ≤ -4.2
C8G C54G G67A C85G | ≤ -4.2
C8G U13A G88A C118U G141U U144A | ≤ -4.2
C8G A26C G46A C63U G88C C96A A150C | ≤ -4.2
C8A U15G C95U A98G C149U A150U | -4.06
C8G G84A | -3.43
C8G G84U | ≤ -4.2
C8U A52G | -3.63
C8U A17U U55A U56C A91G C93G U144C | ≤ -4.2
C8U C87A A142C | ≤ -4.2
C8G A19G A21G A47U G92U A120U C129U | ≤ -4.2
C8U C43U C85U G100A A142U | ≤ -4.2
C8A C79U G81C C125U | ≤ -4.2
C8G C116G | -3.15
C8G C32U C36A G50U C85G | ≤ -4.2
C8G C54U G71C C93U C95A A150G | ≤ -4.2
C8G A16U A23U C57A A115C | ≤ -4.2
C8U A40U C51U G92A C105A A150C | ≤ -4.2
C8A C43U G68A G143C A150C | ≤ -4.2

Variant | polymerase ribozyme fitness (log ratio)
C8U C10G C35G C57A A66U G86U U134C U139C U148A | ≤ -4.2
C8A U31A U56G C63A G68U C99A G128U | ≤ -4.2
C8U A21C A28U U53A U77G G88U U145G A150C | ≤ -4.2
C8G C54U G140U U144G | ≤ -4.2
C8U C35U C57G A147G | ≤ -4.2
C8G A40C C76A A91G | ≤ -4.2
C8G A52G | -3.17
C8G A16U G67C G83U C116G G117A G124U | ≤ -4.2
C8U C14G G50C A106U A110G | ≤ -4.2
C8G A29C G88C C96U C108A A142G | ≤ -4.2
C8A C27U G70A C96U | ≤ -4.2
C8U A20G | -3.94
C8A U55G A66U G94A | ≤ -4.2
C8A C35A A73U C93U G140U | ≤ -4.2
C8U A16G A21C A26U G74C C95U C105G C118U U134C U144A | ≤ -4.2
C8G C85A | ≤ -4.2
C8U A52U U56A U61A C75U C93U C99G C132G | ≤ -4.2
C8G A29C G42C | ≤ -4.2
C8A U56A C79U G84C G112A C131U U146A | ≤ -4.2
C8G A28U C35U C36U G48C A49U C79A G86U A119U | ≤ -4.2
C8G C14U U90G A106C G133C | ≤ -4.2
C8G U134A | ≤ -4.2
C8U C36A G42C G50C C87U G133C | ≤ -4.2
C8G A16U A20U C79U C85U A115C | ≤ -4.2

Variant | polymerase ribozyme fitness (log ratio)
C8U C27U A115G | -4.06
C8U G25C U31A A107U | ≤ -4.2
C8G C10U G65U C96U G100A A142G | ≤ -4.2
C8U C87A U127A G141C | ≤ -4.2
C8G U90A U134A A137C | ≤ -4.2
C8U A26U G83C G133A | ≤ -4.2
C8U C14U A28U U53A G71A C87G C93U U134G A150C | ≤ -4.2
C8A C93A C103G A115G A119G G140A | ≤ -4.2
C8A U9G U55A C57A A107G A121U G126U U139C G141U | ≤ -4.2
C8U C38G G50U A91U C96A | ≤ -4.2
C8U A60U A91C A119G U139G A142U G143C | ≤ -4.2
C8A G83U C93G A142C | ≤ -4.2
C8G U9G U33C A47U C96U G136A | ≤ -4.2
C8U A21G A41C G50A G65C G88A | ≤ -4.2
C8A U44C C79G G86C G140U | ≤ -4.2
C8A G25U A26U C27U G50A C76U C85U C96G A97U | ≤ -4.2
C8G A47C G50C U78G G94U C108A A121U | ≤ -4.2
C8A U31C A41U G58A G71A C76U C125U A142G | ≤ -4.2
C8U C38A G83A C87U U104G | ≤ -4.2
C8G G25C U31A C95U G100C G141A A142U | ≤ -4.2
C8U A20C A49G U53A C95A A106G C118G | ≤ -4.2
C8G A73U | ≤ -4.2
C8U A49U C85A G141C | ≤ -4.2
